# From PubChem BioAssay AID686979 (National Center for Advancing Translational Sciences (NCATS), 2013)
# Hit rate of the full screen: of about 420,000 compounds, about 50,000 (12%) were called active. Inconclusive results, whose numbers are uncertain, are shown with a selection of clear calls. Calls follow the shape of the dose curve; as a rule, active = well fitted inhibition curve with a large enough effect; inconclusive = small, poorly fitted or top-dose-only effect; inactive = flat fitted curve, though single readings scatter. Potencies of inconclusive entries are left out as doubtful fits.
# Test: qHTS for Inhibitors of human tyrosyl-DNA phosphodiesterase 1 (TDP1): qHTS in cells in presence of CPT; also: nearly all actives have a fitted effect of over 55% in size
# Conditions: chicken DT40 Tdp1-/-;hTDP1 cells + 20 nM CPT, ATP luminescence, 48 h; activity change, negative = growth inhibition: at 46.2 µM (top of the series) unless noted
# In short: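 Chicken DT40 Tdp1-/- cells stably complemented with human TDP1 were seeded at 400 cells/well in medium containing 20 nM camptothecin, exposed to pin-transferred compounds, and grown at 37 °C for at least 48 hr. Viability was read as ATP luminescence.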
# % is scaled to controls: 0 for no effect and ±100 for the full control effect; potency is read from the fitted curve at half-maximal effect; tags tell the direction and shape of the fitted curve.
Compound,Potency,"activity change, negative = growth inhibition"
Cc1ccc(C(=O)CC2(O)C(=O)N(C)c3ccc(Br)cc32)c(C)c1 (stereo not drawn),"inconclusive [inhibitor, single point]",–
CCOC(=O)N1CCN(C(=O)c2cn(C)c(=O)c3c2c2ccccc2n3C)CC1,"inconclusive [inhibitor, single point]",–
O=C(CN1CCCCC1)Nc1nnc(-c2ccccc2)s1,"inconclusive [inhibitor, partial curve]",–
COc1ccc(Cc2nc3ccc(C(=O)NCCc4cccc(C)n4)cc3o2)cc1,"inconclusive [inhibitor, single point]",–
Cc1ccc(SCC(=O)OCC(=O)N(CC(C)C)c2c(N)n(Cc3ccccc3)c(=O)[nH]c2=O)cc1C,"inconclusive [inhibitor, single point]",–
CCOC(=O)C(NC(=O)CCC(=O)Nc1ccc(S(N)(=O)=O)cc1)C(O)c1ccccc1 (stereo not drawn),inactive,–
CC(C)[C@@H](N)C(=O)NC[C@H]1O[C@@H](n2cnc3c(N)ncnc32)[C@H](O)[C@@H]1O,"inconclusive [inhibitor, partial curve, poor fit]",–
Cc1ccc(S(=O)(=O)N/N=C2/CCCCC2C2CCCCC2)cc1[N+](=O)[O-] (stereo not drawn),"inconclusive [inhibitor, single point]",–
Cc1ccccc1OCC(=O)NCCCNC(=O)c1cccnc1,inactive,–
CCc1ccc(Oc2c(C(F)(F)F)oc3c(CN4CCN(C)CC4)c(O)ccc3c2=O)cc1,"inconclusive [inhibitor, single point]",–
COc1ccc(-c2cn(Cc3ccc(C(=O)NCc4ccc(C)cc4)cc3)c(C(C)N)n2)cc1 (stereo not drawn),"inconclusive [inhibitor, single point]",–
O=C(Cn1cc(SCc2cccc(Cl)c2)c2ccccc21)N1CCCCCC1,"inconclusive [inhibitor, single point]",–
COc1cccc(-c2ccc3nnc(SCC(=O)Nc4ccc(NC(C)=O)cc4)n3n2)c1,"inconclusive [inhibitor, partial curve]",–
CCCCC(C(=O)NC1CCCC1)N(Cc1ccccc1)C(=O)c1snc(C(N)=O)c1N (stereo not drawn),"inconclusive [inhibitor, single point]",–
Cn1c(=O)c2c(ncn2Cc2ccccc2)n(C)c1=O,"inconclusive [inhibitor, single point]",–
COc1ccccc1N1CCN(S(=O)(=O)CCNC(=O)/C=C/c2ccc3c(c2)OCO3)CC1,"inconclusive [inhibitor, single point]",–
CN(C)c1ccc(/C=C/c2ccc3cc(F)ccc3n2)cc1,"inconclusive [inhibitor, single point]",–
COc1cc(C(C)=O)ccc1COc1ccc(C(=O)OC(C)C(=O)NC(N)=O)cc1OC (stereo not drawn),"inconclusive [inhibitor, single point]",–
COc1c2ccccc2nc2ccccc12,"inconclusive [inhibitor, single point]",–
CC(C)C(C=Cc1ccccc1)=NNS(=O)(=O)c1ccccc1,active: 8.2 µM,–
CCOc1ccccc1CNC(=O)c1cnc2sc(N3CCCCCC3)nn2c1=O,"inconclusive [inhibitor, single point]",–
COc1ccc(NC(=O)COC(=O)c2c(C)noc2C)cc1Cl,inactive,–
CC1CC(C)CN(S(=O)(=O)c2ccc3c(c2)oc(=O)n3CC(=O)NCCCOC(C)C)C1 (stereo not drawn),inactive,–

Compound,Potency,"activity change, negative = growth inhibition"
COc1ccccc1CN(C)CC(=O)Nc1cccc2ccccc12,active: 25.9 µM,–
Cc1cc(NC(=O)CCN2C(=O)c3ccccc3C2=O)no1,inactive,–
COc1ccccc1CN(Cc1ccco1)c1cnc(S(C)(=O)=O)nc1C(=O)Nc1cc(C)ccc1C,"inconclusive [inhibitor, single point]",–
COc1cccc(CNC(=O)Cn2ncc3c4ccccc4n(Cc4ccccc4)c3c2=O)c1,inactive,–
Cc1nn(Cc2cccc(C(=O)Nc3ccn(Cc4ccccc4F)n3)c2)c(C)c1[N+](=O)[O-],active: 23.1 µM,–
COc1ccc(CCN(C)C(=O)c2ccc3c(=O)n4c(nc3c2)CCCCC4)cc1OC,inactive,–
CCOC(=O)c1sc(N)c(C#N)c1COC(=O)C1=COCCO1,inactive,–
O=C(NCCc1csc2nc(-c3ccc(F)cc3)nn12)c1cccc(C(F)(F)F)c1,"inconclusive [inhibitor, single point]",–
CCOC(=O)N1CCN(S(=O)(=O)c2ccc(C(=O)Nc3sc4c(c3C(=O)OC)CCN(C)C4)cc2)CC1,"inconclusive [inhibitor, single point]",–
Cc1ccc(SCC(=O)Nc2ccc(S(=O)(=O)Nc3ncccn3)cc2)cc1,inactive,–
COC(=O)COc1ccc(-c2ccccc2)cc1C=O,"inconclusive [inhibitor, single point]",–
CCc1ccc(S(=O)(=O)NCCc2csc3nc(-c4ccccc4)nn23)s1,active: 20.6 µM,–
Cc1cc(OCCCCNC(C)C)cc(C(C)C)c1,"inconclusive [inhibitor, single point]",–
COc1ccc(C(C)(O)c2nc(/C=C/c3ccccc3)cs2)cc1 (stereo not drawn),"inconclusive [inhibitor, single point]",–
Cc1c(C(=O)Nc2ccc(F)cc2)c2ccccn2c1CCc1ccncc1,"inconclusive [inhibitor, single point]",–
CC(C)(C)c1ccc(-c2nc3cc(NC(=O)c4cccc(Br)c4)ccc3o2)cc1,"inconclusive [inhibitor, single point]",–
CC(C)(C)NCCOc1ccc(Br)cc1,inactive,–
CCCn1nnc(NC(=S)NC(=O)C(C)(C)C)n1,"inconclusive [inhibitor, single point]",–
O=C(/C=C/c1ccc(OC(F)F)cc1)OCC(=O)N1CCC(c2ccccc2)=N1,"inconclusive [inhibitor, single point]",–
Cc1cc(C(=O)Nc2nnc(C(F)(F)F)s2)cs1,"inconclusive [inhibitor, partial curve, poor fit]",–
CCO[C@H]1OC(C(=O)N2CCN(Cc3ccccc3)CC2)=C[C@@H](C2CCCCC2)[C@@H]1CCCO,active: 9.2 µM,–
C=CCn1c(=O)c(C(=O)NCCN(CC)CC)c(O)c2ccccc21,"inconclusive [inhibitor, single point]",–
C=CCc1cc(Cl)ccc1OCCOCCN(C)C,"inconclusive [inhibitor, single point]",–

Compound,Potency,"activity change, negative = growth inhibition"
O=C1CC2(CCN(C(=O)c3cccc(Cl)c3)CC2)Oc2ccccc21,"inconclusive [inhibitor, single point]",–
Cc1n(C)c2cc(Cl)ccc2[n+]1Cc1ccccc1,"inconclusive [inhibitor, single point]",–
COc1cccc(C2c3cc4c(cc3OC(NNC(N)=O)C2C)OCO4)c1O (stereo not drawn),active: 4.61 µM,–
Cc1cc(CNC(=O)Cc2ccccc2)c2ccccc2n1,"inconclusive [inhibitor, single point]",–
Cn1c2ccccc2c2cc(C(=O)N3CCOc4ccc(C(C)(O)CCn5cccn5)cc4C3)ccc21 (stereo not drawn),inactive,–
c1ccc(-c2nnc(C(c3ccccc3)c3ccccc3)o2)cc1,active: 25.9 µM,–
Cc1ccc(S(=O)(=O)Nc2cc3c4c(c2)CCC(=O)N4CCC3)cc1,"inconclusive [inhibitor, single point]",–
COc1cc(OC)c(NC(=O)c2ccco2)cc1Cl,"inconclusive [inhibitor, single point]",–
C=CCn1c(SCc2csc(C)n2)nc2sc3c(c2c1=O)CCCCC3,"inconclusive [inhibitor, single point]",–
O=C(Cc1ccccc1)Nc1cc2c(cc1Cl)OCCCO2,inactive,–
CC(=O)N1CCN(C(=O)CSc2nc3c(cnn3-c3ccccc3)c(=O)[nH]2)CC1,inactive,–
Cn1c(=O)c2c(ncn2CC(=O)Nc2cccc(C(F)(F)F)c2)n(C)c1=O,"inconclusive [inhibitor, single point]",–
CCOCCCN1C(=O)CN(C2CCCCCC2)C(=O)C1c1ccc(OC)cc1 (stereo not drawn),active: 7.94 µM,–
CCN(CC)C1=CC(=O)OC12CCCCC2,"inconclusive [inhibitor, partial curve]",–
C[C@@H]1CN([C@H](C)CO)C(=O)Cc2cc(NS(=O)(=O)c3ccc(Cl)cc3)ccc2O[C@H]1CN(C)Cc1ccc(C(F)(F)F)cc1,"inconclusive [inhibitor, single point]",–
COc1ccc(Cn2c(SCc3ccc(C(=O)NC4CCCC4)cc3)nc3cccnc32)cc1,"inconclusive [inhibitor, single point]",–
O=C(COc1ccccc1)Nc1ccc2[nH]c(=O)[nH]c2c1,inactive,–
CCN1CC=C2C(C#N)=C(N)C(C#N)(C#N)[C@H](c3cccc(OC)c3OC)[C@H]2C1,inactive,–
Cc1ccc(NC(=O)c2ccc(NCCN)c([N+](=O)[O-])c2)cc1Cl,"inconclusive [inhibitor, single point]",–
O=C(CCS(=O)(=O)c1ccccc1)Nc1nc2ccc(F)cc2s1,active: 11.6 µM,–
COc1cc([C@@H]2CC=C(C(=O)O)[C@H](c3ccc(Cl)cc3)N2S(=O)(=O)c2ccc(C)cc2)cc(OC)c1OC,–,inconclusive: -38.8% [inhibitor]
CC(Nc1nc(-c2cccnc2)nc2ccccc12)c1ccccc1 (stereo not drawn),"inconclusive [inhibitor, single point]",–
